The results in this text go back to publication PMC9834212.

Sequences of proteins named here, by UniProt entry; tags and fusion partners are left off.
UniProt P31323: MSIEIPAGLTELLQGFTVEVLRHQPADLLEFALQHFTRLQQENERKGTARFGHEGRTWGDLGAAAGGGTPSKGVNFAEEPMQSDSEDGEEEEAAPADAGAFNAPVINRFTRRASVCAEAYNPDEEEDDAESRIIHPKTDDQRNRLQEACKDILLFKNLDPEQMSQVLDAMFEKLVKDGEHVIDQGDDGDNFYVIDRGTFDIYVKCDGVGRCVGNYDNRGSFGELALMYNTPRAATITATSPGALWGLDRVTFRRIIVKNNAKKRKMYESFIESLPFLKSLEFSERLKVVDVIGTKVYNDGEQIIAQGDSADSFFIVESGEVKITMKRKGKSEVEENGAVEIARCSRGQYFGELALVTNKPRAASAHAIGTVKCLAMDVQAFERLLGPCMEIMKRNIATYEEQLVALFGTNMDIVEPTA
UniProt P13861: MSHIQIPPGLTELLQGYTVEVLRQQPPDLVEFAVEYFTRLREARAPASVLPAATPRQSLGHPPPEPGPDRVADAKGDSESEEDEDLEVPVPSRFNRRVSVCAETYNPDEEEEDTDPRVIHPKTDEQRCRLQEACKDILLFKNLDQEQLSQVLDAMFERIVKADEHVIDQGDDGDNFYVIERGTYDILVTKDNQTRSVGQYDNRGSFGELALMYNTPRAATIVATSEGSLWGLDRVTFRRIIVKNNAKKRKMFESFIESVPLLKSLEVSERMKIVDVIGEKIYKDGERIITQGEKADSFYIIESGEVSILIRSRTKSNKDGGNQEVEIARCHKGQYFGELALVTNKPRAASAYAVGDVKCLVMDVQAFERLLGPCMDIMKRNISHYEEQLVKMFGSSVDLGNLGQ
UniProt P31321: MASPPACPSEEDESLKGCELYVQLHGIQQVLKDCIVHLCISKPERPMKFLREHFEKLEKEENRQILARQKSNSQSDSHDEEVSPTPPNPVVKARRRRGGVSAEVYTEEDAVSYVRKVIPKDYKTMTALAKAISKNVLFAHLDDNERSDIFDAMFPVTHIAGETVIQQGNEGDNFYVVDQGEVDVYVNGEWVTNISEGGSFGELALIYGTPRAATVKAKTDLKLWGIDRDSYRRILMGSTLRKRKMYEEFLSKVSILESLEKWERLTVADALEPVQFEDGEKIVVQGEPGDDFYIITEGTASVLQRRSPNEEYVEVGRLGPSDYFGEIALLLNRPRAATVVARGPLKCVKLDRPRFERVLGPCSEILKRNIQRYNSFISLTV
UniProt P10644: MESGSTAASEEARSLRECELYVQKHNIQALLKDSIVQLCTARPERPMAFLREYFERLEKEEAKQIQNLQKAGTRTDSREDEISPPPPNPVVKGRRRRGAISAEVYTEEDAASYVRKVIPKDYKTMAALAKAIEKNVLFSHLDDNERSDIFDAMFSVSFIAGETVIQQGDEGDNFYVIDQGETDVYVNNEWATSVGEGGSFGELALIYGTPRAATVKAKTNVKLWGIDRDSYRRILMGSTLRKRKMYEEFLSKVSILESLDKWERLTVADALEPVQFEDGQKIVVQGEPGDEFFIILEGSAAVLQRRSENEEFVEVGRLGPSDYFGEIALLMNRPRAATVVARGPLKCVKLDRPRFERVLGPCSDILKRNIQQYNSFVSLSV

These are yes or no findings as the source states them, for the method shown. Binding seen in cells or lysates may run through a third protein. Some binding calls cover weakened binding; strength is not graded here. Sequences can lack the tags named with a protein.

Targets include PKA RIIβ-Flag (UniProt P31323); PKA RIIα-Flag (UniProt P13861); PKA RIβ-Flag (UniProt P31321); PKA RIα-Flag (UniProt P10644).
Common to all, as to experiment: co-IP; PKA regulatory subunit-Flag and HA-ZNF185 (or its deletion mutant, or HA-mZfp185) overexpressed in HEK293T cells; lysates on anti-FLAG M2 affinity gel for 1 h at 4 °C; blots

B1: HA-ZNF185 deletion mutant (Δaa 534–605) (protein, UniProt O15231-1)
chain: MSISALGGRTKGKPLPPGEEERNNVLKQMKVRTTLKGDKSWITKQDESEGRTIELPSGRSRATSFSSAGEVPKPRPPSTRAPTGYIIRGVFTKPIDSSSQPQQQFPKANGTPKSAASLVRTANAGPPRPSSSGYKMTTEDYKKLAPYNIRRSSTSGDTEEEEEEEVVPFSSDEQKRRSEAASGVLRRTAPREHSYVLSAAKKSTGPTQETQAPFIAKRVEVVEEDGPSEKSQDPPALARSTPGSNSADGGRTKASRAIWIECLPSMPSPAGSQELSSRGEEIVRLQILTPRAGLRLVAPDVEGMRSSPGNKDKEAPCSRELQRDLAGEEAFRAPNTDAARSSAQLSDGNVGSGATGSRPEGLAAVDIGSERGSSSATSVSAVPADRKSNSTAAQEDAKADPKGALADYEGKDVATRVGEAWQERPGAPRGGQGDPAVPAQQPADPSTPERQSSPSGSEQLVRRESCGSSVLTDFEGKDVATKVGEAWQDRPGAPRGGQGDPAVPTQQPADPSTPEQQNSPSGSEQFVRRESCTSFAMEKKPPCGSTPYSERTTGGICTYCNREIRDCPKITLEHLGICCHEYCFKCGICSKPMGDLLDQIFIHRDTIHCGKCYEKLF
B1: the binding entry with PKA RIIβ-Flag and with PKA RIIα-Flag was “no binding” throughout.

B2: HA-mZfp185 (protein, UniProt Q62394 1-352)
chain: MTTEDYKKLAPYNIRRSSISGTEEEEVPFTPDEQKRRSQAALGVLRKTAPREHSYVLSAAKKTTSSPTQELQSPFLAKRVDVVDEDVLPEKNQEPPALARPDSGLSSSTTEKIAHRQITPPTAELHLVAPDLEALSTPDSCEENNAAPKIIKEIPGTLQDGQSDPTVASQQLADLSILEPLGSPSGAEQQIKAEDCTNMLMSPSSCMVTVTVSDTSEQSQLCVPGVSSKVDSSSTIKGILFVKEYMNTSEVSSGKPVSSHCDSPSSIEDSLDLAKKPPHEGTPSERPTEGVCTYCSHEIQDCPKITLEHLGICCHEYCFKCGICNKPMGDLLDQIFIHRDTIHCGKCYEKLF
As for B2, the binding entry in the experiment with PKA RIβ-Flag, with PKA RIα-Flag, with PKA RIIβ-Flag and in the experiment with PKA RIIα-Flag was “binds” each time.
